# In PubChem BioAssay AID504706 (National Center for Advancing Translational Sciences (NCATS), 2011):
# Among all 320,000 compounds or so, about 200 (0.062%) were called active. Inconclusive means that the source gave no clear call. Such entries were picked first, then a sample of the others. Calls follow the shape of the dose curve; as a rule, active = well fitted activation curve with a large enough effect; inconclusive = small, poorly fitted or top-dose-only effect; inactive = no such curve, though single readings can be large or run the other way. No potency is given beside an inconclusive call; the fits are too rough.
# Assay: qHTS assay for re-activators of p53 using a Luc reporter; also: nearly all actives have a fitted effect of over 45% in size
# Settings: H1299 p53-A138V BP100-luciferase reporter, luminescence, 24 h; series mostly up to 92.2 µM
# How it was run: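 p53-null H1299 cells stably carrying temperature-sensitive p53-A138V and a BP100-luciferase reporter were pinned with compounds (4-point, 1:5 series) and held 24 hrs at 37 deg C. Luminescence was read 10 min after detection reagent.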
# Potency is read from the fitted curve at half-maximal effect; tags tell the direction and shape of the fitted curve.
row,Compound,Potency
1,COc1ccc(S(=O)(=O)N2CCCC2)cc1C(=O)O,inactive
2,O=C(Nc1ccc2c(c1)OCO2)c1ccc(CN2CCOCC2)cc1,"inconclusive [activator, partial curve, poor fit]"
3,COc1ccccc1C(=O)NNC(=O)c1ccc(F)cc1,"inconclusive [activator, full curve, poor fit]"
4,COc1ccc(-c2cc3ccc(O)cc3oc2=O)cc1OC,"inconclusive [activator, single point]"
5,COc1ccc(S(=O)(=O)N2CCCCC2)cc1NC(=O)Cn1cnc2c1c(=O)n(C)c(=O)n2C,inactive
6,Cc1nn(-c2nc3ccccc3[nH]2)c(N)c1-c1ccc(Cl)cc1,"inconclusive [activator, full curve, poor fit]"
7,O=C(NCC1CCCO1)c1c(O)c2c([nH]c1=O)CCCC2 (centres undefined),"inconclusive [activator, single point]"
8,O=c1[nH]c(CN(CCc2ccccc2)S(=O)(=O)c2ccc(Cl)cc2)nc2ccccc12,"inconclusive [activator, full curve, poor fit]"
9,Cc1ccc(S(=O)(=O)N(C)C)cc1NC(=O)COC(=O)Cc1cccs1,inactive
10,O=C1CC2(CCN(C(=O)C3CC(=O)N(c4ccccc4)C3)CC2)Oc2ccccc21 (centres undefined),inactive
11,Cc1cc(C)n(CC(=O)N/N=C/c2cc([N+](=O)[O-])ccc2O)n1,"inconclusive [activator, single point]"
12,Cn1c(=O)n(C)c2cc([N+](=O)[O-])c(N3CCN(C(=O)c4ccc(Cl)cc4)CC3)cc21,inactive
13,CCOC(=O)CN1NC2(CCCCC2)NC1=S,inactive
14,CCCc1cc2c(=O)c(-c3ccccn3)coc2cc1OC,"inconclusive [activator, partial curve, poor fit]"
15,CCOc1ccc(NC(=O)c2ccc3snnc3c2)cc1,"inconclusive [activator, partial curve, poor fit]"
16,Cc1cccc(-n2c(C)c(-c3ccccc3)[nH]c2=S)c1,inactive
17,N/C(=N\OC(=O)c1cccs1)c1cccc([N+](=O)[O-])c1,"inconclusive [activator, full curve, poor fit]"
18,O=C1CCCCC1c1cccc2ccccc12 (centres undefined),inactive
19,CN1CCc2c(sc3c2C(=O)NC(c2ccccn2)N3)C1 (centres undefined),"inconclusive [activator, partial curve, poor fit]"
20,Cc1ccc(-n2ncc(Br)c(Br)c2=O)cc1,inactive
21,Clc1c(CSc2nc3ccccc3o2)nc2sccn12,"inconclusive [activator, partial curve, poor fit]"
22,Cc1cccc(/C(N)=N/OC(=O)c2ccncc2)c1,"inconclusive [activator, full curve, poor fit]"
23,O=C(NC12CC3CC(CC(C3)C1)C2)c1ccc(-c2cccc(Cl)c2)o1,"inconclusive [activator, partial curve, poor fit]"

row,Compound,Potency
1,O=C(N/N=C/c1cccc(O)c1)c1ccc2c(c1)OCCO2,"inconclusive [activator, full curve, poor fit]"
2,CN=c1scc(C)n1/N=C/c1ccc(O)cc1,"inconclusive [activator, partial curve, poor fit]"
3,CC(=O)NC(c1ccccc1)c1cc([N+](=O)[O-])c2cccnc2c1O (centres undefined),inactive
4,COc1ccc(CNC(=O)CN(C(=O)c2csnn2)c2ccc3c(c2)OCCO3)cc1,"inconclusive [activator, single point]"
5,COc1ccc(C(=O)/C=C/c2ccccc2F)c(OC(=O)c2ccc([N+](=O)[O-])cc2)c1,"inconclusive [activator, full curve, poor fit]"
6,CCN1CCc2c(sc(NC(=O)C3COc4ccccc4O3)c2C(N)=O)C1 (centres undefined),"inconclusive [activator, partial curve, poor fit]"
7,CCOC(=O)c1sc2nc(CC(=O)OC)nc(NCc3ccco3)c2c1C,inactive
8,CCn1c(=O)c(C(=O)CN(C)Cc2ccc(F)cc2)c(N)n(Cc2ccccc2)c1=O,inactive
9,S=C(c1c[nH]c2ccc(Br)cc12)N1CCOCC1,"inconclusive [activator, single point]"
10,CCC(C(=O)NCc1ccco1)N(C(=O)CNS(=O)(=O)c1ccc(C)cc1)c1ccccc1OC (centres undefined),inactive
11,COc1ccc(/C=N/Nc2nc(-c3cccc(S(=O)(=O)N4CCCC4)c3)cs2)cc1OC,inactive
12,Cc1nc(CN(C)C(=O)CC2C(=O)NCCN2Cc2ccc(-c3ccccc3)cc2)cs1 (centres undefined),"inconclusive [activator, full curve, poor fit]"
13,COc1ccccc1OCc1nc2ccccc2[nH]1,"inconclusive [activator, partial curve, poor fit]"
14,CN(C)c1ccc(C(=O)Nc2cccc(S(=O)(=O)N3CCCC3)c2)cc1,"inconclusive [activator, partial curve, poor fit]"
15,NS(=O)(=O)c1ccc(N/C=C\C(=O)c2cccc3ccccc23)cc1,"inconclusive [activator, single point]"
16,NC(=S)N/N=C\c1ccc(-c2cccc(Cl)c2Cl)o1,"inconclusive [activator, partial curve, poor fit]"
17,COc1ccccc1CC(=O)Nc1ccc(O)cc1C(=O)O,inactive
18,O=[N+]([O-])c1ccc(CSc2nc3ccccc3[nH]2)cc1,"inconclusive [activator, partial curve, poor fit]"
19,CCNC(=S)NNC(=O)c1cccn(Cc2ccc(Cl)cc2Cl)c1=O,"inconclusive [activator, full curve, poor fit]"
20,O=C1NC(=O)/C(=C\c2ccc(OCc3ccccc3)cc2)S1,"inconclusive [activator, single point]"
21,c1ccc(N2CCN(c3cnccn3)CC2)nc1,"inconclusive [activator, single point]"
22,CC(C)C[C@H](NC(=O)c1nc[nH]c1C(=O)NC(c1ccccc1)c1ccccc1)C(=O)OC(C)(C)C,inactive
23,COC(=O)c1ccc(C(=O)Nc2ccc(F)cc2)cc1,"inconclusive [activator, full curve, poor fit]"

row,Compound,Potency
1,CC(=O)c1c(C)[nH]c(C(=O)OCC(=O)c2c[nH]c3ccccc23)c1C,"inconclusive [activator, partial curve, poor fit]"
2,O=C(OCCc1cc2ccccc2c(=O)o1)c1ccc2c(c1)OCO2,"inconclusive [activator, full curve, poor fit]"
3,O=C(CSc1nnc(-c2csc3c2CCCC3)o1)Nc1ccccc1,"inconclusive [activator, full curve, poor fit]"
4,CCCC(=O)Nc1nnc(SCC(=O)NCc2ccco2)s1,"inconclusive [activator, full curve, poor fit]"
5,Oc1ccccc1/C=N/NC(=S)NC1CC2CC1C1C=CCC21 (centres undefined),"inconclusive [activator, partial curve, poor fit]"
6,O=C(COc1ccccc1[N+](=O)[O-])Nc1ccc2c(c1)CCC2,"inconclusive [activator, partial curve, poor fit]"
7,O=C(N/N=C/c1ccoc1)c1cc(O)cc(O)c1,"inconclusive [activator, single point]"
8,COc1ccccc1CNCC(=O)Nc1cc(S(=O)(=O)N2CCCCC2)ccc1C,inactive
9,CCOC(=O)c1cccc(NC(=O)c2ccc(N(C)C)cc2)c1,"inconclusive [activator, full curve, poor fit]"
10,CCOC(=O)c1cc(-c2ccc(OC)cc2F)nc2c1c(C)nn2CCC#N,inactive
11,O=c1[nH]c(-c2ccccn2)cc2ccccc12,"inconclusive [activator, partial curve, poor fit]"
12,Cc1ccn2cc(C(=O)NCc3ccco3)nc2c1,inactive
13,CCc1ccc(NC(=S)N2CCN(c3cccc(C(F)(F)F)c3)CC2)cc1,inactive
14,CSc1ccc(/C=N/NC(=O)c2cc(O)cc(O)c2)cc1,"inconclusive [activator, full curve, poor fit]"
15,Cc1nc2c(-c3ccccc3)c(C)nn2c(N)c1-c1ccccc1,"inconclusive [activator, partial curve, poor fit]"
16,COc1cccc(/C=C2\SC(=S)N(N3CCOCC3)C2=O)c1OC,"inconclusive [activator, partial curve, poor fit]"
17,CN(C)N=Nc1nc2c(c(=O)n(C)c(=O)n2C)n1C,inactive
18,COc1ccccc1/C=N/NC(=O)c1ccc(C)nc1,"inconclusive [activator, single point]"
19,CC1(C)CC(NC(=O)c2cc(S(=O)(=O)N3CCCCC3)ccc2Cl)CC(C)(C)N1,"inconclusive [activator, partial curve, poor fit]"
20,CC(C)n1cc(-c2ccc(Cl)cc2)cc(C#N)c1=O,inactive
21,CC(Cc1ccc(Cl)cc1)N1CCC(n2nccc2NC(=O)C2CCCC2)CC1 (centres undefined),inactive
22,CC(=O)c1c(C)[nH]c(C(=O)Nc2cc(S(=O)(=O)N3CCCCC3)ccc2C)c1C,inactive
23,Cc1noc(C)c1COc1ccccc1C(=O)N1CCN(S(=O)(=O)c2cccc([N+](=O)[O-])c2)CC1,"inconclusive [activator, partial curve, poor fit]"
